In all, about 310,000 compounds went through this assay and about 2,200 (0.71%) showed an effect of 50% or more. Effects have a minus sign here. This is one part of the list.
biological target: human ether-à-go-go-related gene (hERG) potassium channel (human, UniProt Q12809); test: primary screen, population patch clamp on CHO cells stably expressing hERG
Sequence (Q12809 whole entry, looked up): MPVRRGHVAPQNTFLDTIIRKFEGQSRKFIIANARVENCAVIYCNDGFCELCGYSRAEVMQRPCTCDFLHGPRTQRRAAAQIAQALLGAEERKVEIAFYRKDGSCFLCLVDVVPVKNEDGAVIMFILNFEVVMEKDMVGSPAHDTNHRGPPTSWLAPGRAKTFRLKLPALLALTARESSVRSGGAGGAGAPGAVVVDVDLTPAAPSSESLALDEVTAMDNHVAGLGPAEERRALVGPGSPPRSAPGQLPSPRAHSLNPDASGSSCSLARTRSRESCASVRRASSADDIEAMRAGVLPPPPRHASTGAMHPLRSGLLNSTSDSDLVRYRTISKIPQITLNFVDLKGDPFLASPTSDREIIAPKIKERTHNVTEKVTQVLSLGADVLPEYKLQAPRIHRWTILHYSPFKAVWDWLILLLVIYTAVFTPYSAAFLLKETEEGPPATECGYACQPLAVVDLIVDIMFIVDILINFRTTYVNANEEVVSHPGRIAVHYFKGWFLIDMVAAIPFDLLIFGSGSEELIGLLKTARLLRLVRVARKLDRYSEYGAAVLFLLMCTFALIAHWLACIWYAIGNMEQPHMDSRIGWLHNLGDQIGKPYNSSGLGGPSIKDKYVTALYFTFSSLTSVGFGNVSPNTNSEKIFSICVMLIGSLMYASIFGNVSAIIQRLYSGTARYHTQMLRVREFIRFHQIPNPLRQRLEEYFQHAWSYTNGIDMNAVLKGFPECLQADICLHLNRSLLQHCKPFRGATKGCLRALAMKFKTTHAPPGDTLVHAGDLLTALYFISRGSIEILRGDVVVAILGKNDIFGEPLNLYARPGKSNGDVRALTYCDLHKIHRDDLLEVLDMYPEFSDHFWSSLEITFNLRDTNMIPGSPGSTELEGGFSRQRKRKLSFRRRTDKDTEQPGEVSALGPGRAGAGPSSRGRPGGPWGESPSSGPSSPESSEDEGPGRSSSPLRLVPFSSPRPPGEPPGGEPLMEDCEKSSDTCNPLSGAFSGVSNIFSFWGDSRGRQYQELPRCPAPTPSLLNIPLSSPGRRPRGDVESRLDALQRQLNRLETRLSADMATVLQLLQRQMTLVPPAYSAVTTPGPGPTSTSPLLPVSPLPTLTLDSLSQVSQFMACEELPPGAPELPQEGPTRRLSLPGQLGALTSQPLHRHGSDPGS

Compared with CC(CN1CCN(C)CC1)OC(=O)c1ccccc1.Cl (centres unmarked), Cn1c(C(=O)N2CCN(c3ccc(F)cc3)CC2)cc2ccccc21 is lower in “hERG current change (%, negative = inhibition) at 1uM” value: 15% for the first, 10.2% for the second.

First: c1ccc(-n2cccc2)c(N2CCCCC2)c1
Second: O=C(c1cc(C2CC2)nn1-c1ccccc1)N1CCN(S(=O)(=O)c2cccc(F)c2)CC1
The “hERG current change (%, negative = inhibition) at 1uM” value of the first is higher: 3.78% for the first, -1.87% for the second.

Going from COc1ccc(CNCc2cccc(C)c2)cc1.O=C(O)C(=O)O to COc1cccc(CNC(=O)CCC2CCCN(Cc3ccc(OC(F)F)cc3)C2)c1 (centres unmarked), the “hERG current change (%, negative = inhibition) at 1uM” value falls from 0.793% to -80.1%.

Going from CC(C)(C)NC(=O)C(OC(=O)c1ccco1)c1ccccc1F (centres unmarked) to O=C(C1=C(O)C(=O)N(CC2CCCO2)C1c1ccccc1F)c1ccco1 (centres unmarked), the “hERG current change (%, negative = inhibition) at 1uM” value rises from 7.48% to 12.8%.

First: Clc1ccc2nncn2n1
Second: CCOC(=O)c1nn(-c2ccc(Cl)cc2)cc1O
The “hERG current change (%, negative = inhibition) at 1uM” value of the first is higher: 11% for the first, -5.52% for the second.

Going from O=C(Nc1ccnn1C1CCN(C(=O)c2ccc(F)c(Cl)c2)CC1)C1CC1 to C[C@H](NC(=O)C1CCN(S(=O)(=O)c2ccccc2)CC1)C(=O)NCc1ccc(Cl)c(Cl)c1, the “hERG current change (%, negative = inhibition) at 1uM” value falls from 15.9% to 15.8%.

First: Cc1ccc(N2CC(C(=O)Nc3nccs3)CC2=O)cc1 (centres unmarked)
Second: CCOC(=O)N1CCN(C2CC(=O)N(c3ccc(F)cc3)C2=O)CC1 (centres unmarked)
The “hERG current change (%, negative = inhibition) at 1uM” value of the first is lower: 3.72% for the first, 5.2% for the second.

Going from CCCCn1c(N)c(N(CCOC)C(=O)COC(=O)CCOc2ccc(C)cc2)c(=O)[nH]c1=O to CC(C)COc1ccc(C(=O)OCC(=O)N(C)CC(=O)Nc2ccc(F)cc2)cc1, the “hERG current change (%, negative = inhibition) at 1uM” value falls from 9.05% to 7.02%.

First: O=C(CSc1c(F)c(F)cc(F)c1F)Nc1ccc(C2SCCS2)cc1
Second: COC(=O)[C@H](Cc1ccccc1)NC(=O)c1cc(COc2c(F)cccc2F)on1
The “hERG current change (%, negative = inhibition) at 1uM” value of the first is lower: 7.36% for the first, 14.6% for the second.

Compared with Cc1ccc(S(=O)(=O)N2CCN(C(=O)COC(=O)Cc3ccc(Cl)cc3)CC2)c(C)c1, Cc1ccc(S(=O)(=O)N2CCN(C(=O)N3CCOCC3)CC2)c(C)c1 is lower in “hERG current change (%, negative = inhibition) at 1uM” value: 17.8% for the first, 2.62% for the second.

Compared with Cc1ccc(C2(C)NC(=O)N(CC(=O)N(Cc3ccccc3)C(C)(C)C)C2=O)cc1 (centres unmarked), CCOC(=O)Cn1nc(-c2ccccc2)c2cnc3ccc(C)cc3c21 is higher in “hERG current change (%, negative = inhibition) at 1uM” value: 6.95% for the first, 17.9% for the second.

Going from S=c1[nH]nc(-c2ccccn2)n1/N=C/c1cccs1 to O=C(CN1C(=O)NC2(CCCCC2)C1=O)N(Cc1ccco1)Cc1cccs1, the “hERG current change (%, negative = inhibition) at 1uM” value falls from 6.66% to -3.33%.

Going from CCC(C)(C)NC(=O)C1CCCN(S(=O)(=O)c2ccc3c(c2)CC(C)N3C(=O)C2CC2)C1 (centres unmarked) to CC(=O)N(C(C)=O)S(=O)(=O)c1ccc(N=NN2CCCCC2)cc1, the “hERG current change (%, negative = inhibition) at 1uM” value rises from 4.91% to 11.6%.

First: COc1ccc(CCN=C(N)NS(=O)(=O)c2ccc3ccccc3c2)cc1
Second: COc1ccc(OCCNC(=O)/C=C/c2ccccc2)cc1
The “hERG current change (%, negative = inhibition) at 1uM” value of the first is higher: 6.97% for the first, 0.454% for the second.

Compared with CN(C(=O)Cn1cccc1C1=NC(c2ccccc2)CO1)c1ccccc1 (centres unmarked), COCCn1c(SCC(=O)NC(=O)NCc2ccccc2)nc2ccccc21 is higher in “hERG current change (%, negative = inhibition) at 1uM” value: -1.03% for the first, 3.8% for the second.

Going from CC(C)(C)c1ccc(O)c(/C=N\O)c1 to CC[n+]1c(C)sc2c(C)cc(C)cc21.[I-], the “hERG current change (%, negative = inhibition) at 1uM” value rises from 10.9% to 17.7%.

First: COc1ccc(CC2(CCc3ccncc3)C(=O)NC(=O)NC2=O)cc1
Second: CCOC(=O)C1CCN(c2cc(=O)n(Cc3ccc(F)cc3)c(=O)[nH]2)CC1
The “hERG current change (%, negative = inhibition) at 1uM” value of the first is higher: 18.6% for the first, 5.37% for the second.

First: COc1ccc(OC)c(S(=O)(=O)N(C)CC(=O)N2CCc3ccccc3C2)c1
Second: COc1cccc(C(=O)NN2C(=S)N(c3ccccc3)C(=O)C2CC(N)=O)c1 (centres unmarked)
The “hERG current change (%, negative = inhibition) at 1uM” value of the first is lower: -2.4% for the first, 16.3% for the second.

Going from CCOC(=O)c1ccc(N2CCN(c3cc(C)ccc3C)CC2)c(N)c1 to CCS(=O)(=O)c1nc(S(=O)(=O)c2ccc(C)cc2)c(N2CCN(C)CC2)s1, the “hERG current change (%, negative = inhibition) at 1uM” value rises from 1.1% to 15.3%.

Compared with CC(C)C(NS(=O)(=O)c1ccc2c(c1)OCCCO2)C(=O)O (centres unmarked), Cc1ccc(S(=O)(=O)C2(C(=O)O)CCCC2)cc1C is lower in “hERG current change (%, negative = inhibition) at 1uM” value: 13.9% for the first, 10.1% for the second.

Going from Oc1ccc(Br)cc1-c1cc(-c2ccc(Cl)cc2)n[nH]1 to O=C(Nc1ccc(Br)cn1)c1ccc([N+](=O)[O-])cc1Cl, the “hERG current change (%, negative = inhibition) at 1uM” value rises from 11.6% to 13.6%.

Compared with COc1cc(SC)ccc1C(=O)OCC(=O)N1CCN(C(C)=O)CC1, COc1ccc(NC2CCCN(C(=O)CCN3CCOCC3)C2)cc1 (centres unmarked) is higher in “hERG current change (%, negative = inhibition) at 1uM” value: -4.08% for the first, 17.4% for the second.

First: COc1cc(OC)c(NS(=O)(=O)c2cc(Br)cnc2N)cc1Cl
Second: CCOc1ccc(N2C(=O)/C(=C\c3ccccc3OC)S(=O)(=O)C2c2cccc([N+](=O)[O-])c2)cc1 (centres unmarked)
The “hERG current change (%, negative = inhibition) at 1uM” value of the first is higher: 14.5% for the first, 7.37% for the second.

First: C=CCN1C(=O)c2ccccc2Sc2ccc(C(=O)NCCC)cc21
Second: COC(=O)c1ccccc1NC(=O)c1cc[n+](C)cc1
The “hERG current change (%, negative = inhibition) at 1uM” value of the first is lower: 3.36% for the first, 13.2% for the second.

First: Nc1cccc2c1C(=O)N(C(=O)/C=C/c1ccc(F)cc1)C2=O
Second: CC1(C)CC(=O)c2c(nc(SCC(=O)Nc3nsc(-c4ccccc4)n3)c(C#N)c2-c2ccccc2)C1
The “hERG current change (%, negative = inhibition) at 1uM” value of the first is higher: 9.8% for the first, 6.13% for the second.

Going from CSc1ccc(-c2nc(CSCC(=O)NCCCN3CCOCC3)c(C)o2)cc1 to COCCCn1c(SCC(=O)NC2CCCC2)nnc1-c1ccncc1, the “hERG current change (%, negative = inhibition) at 1uM” value rises from 2.68% to 11.5%.

Going from CCOCCCN(C)C1CCN(C(=O)c2oc3ccccc3c2NC(=O)c2ccc([N+](=O)[O-])cc2)CC1 to O=C(COC(=O)CCOc1ccccc1)NCc1ccco1, the “hERG current change (%, negative = inhibition) at 1uM” value rises from -85.2% to 6.28%.

First: C1CCCC(N2CCNCC2)CC1.Cl
Second: CNC(=O)c1cccc(NC(=O)c2cc(-c3ccccc3)nc3c2cnn3C(C)C)c1
The “hERG current change (%, negative = inhibition) at 1uM” value of the first is higher: 11.1% for the first, 9.18% for the second.

— paper PMC4336329 (PLoS ONE, 2015)
